Reference: the supplement of paper PMC4967469

Legend:
Assay in all cases: Viability of human cancer cell lines after 72 h of drug (GDSC screen)
BAY 61-3606 = compound: COc1ccc(-c2cc3nccn3c(Nc3ncccc3C(N)=O)n2)cc1OC [BAY 61-3606]; conditions: top dose 8 µM; top dose inferred
Procedure: (§1)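 Human cancer cell lines in 384-well plates, medium with 10% serum, drug for 72 h over a 256-fold dose range (nine 2-fold or five 4-fold steps up to the top dose). Adherent lines were fixed and stained with the nucleic acid dye Syto60, suspension lines read with resazurin; signal relative to control wells, capped at 0 and 100%. One two-parameter sigmoid per drug and line, fitted in a mixed model over all curves with the slope shared within a line.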

KIN001-266 = compound: CCN1CCC(n2cc(CNc3cc(Cl)c4ncc(C#N)c(Nc5ccc(F)c(Cl)c5)c4c3)nn2)CC1 [KIN001-266]; conditions: top dose 20 µM; top dose inferred
Procedure: as §1

CCT007093 = compound: O=C1/C(=C/c2cccs2)CC/C1=C\c1cccs1 [CCT007093]; conditions: top dose 6.6 µM; top dose inferred
Procedure: as §1

QL-XII-47 = compound: C=CC(=O)N1CCc2ccc(-n3c(=O)ccc4cnc5ccc(-c6cnn(C)c6)cc5c43)cc21 [QL-XII-47]; conditions: top dose 10.24 µM; top dose inferred
Procedure: as §1

Cell Line	AUC (BAY 61-3606)	IC50 (BAY 61-3606) [µM]	AUC (KIN001-266)	IC50 (KIN001-266) [µM]	AUC (CCT007093)	IC50 (CCT007093) [µM]	AUC (QL-XII-47)	IC50 (QL-XII-47) [µM]
HN (head and neck, adherent)	0.969	> 8	0.988	> 20	0.982	> 6.6	0.989	> 10.2
HO-1-N-1 (head and neck, adherent)	0.985	> 8	0.973	> 20	0.984	> 6.6	0.7	2.22
HO-1-u-1 (head and neck, adherent)	0.793	3.49	0.904	> 20	0.982	> 6.6	0.866	8.5
HOP-62 (lung adenocarcinoma, adherent)	0.709	1.95	0.875	19.7	0.981	> 6.6	0.545	0.849
HOP-92 (large cell lung carcinoma, adherent)	0.884	> 8	0.979	> 20	0.956	> 6.6	0.982	> 10.2
HOS (osteosarcoma, adherent)	0.793	2.99	0.98	> 20	0.976	> 6.6	0.987	> 10.2
HPAC (pancreas, adherent)	0.851	> 8	0.951	> 20	0.894	> 6.6	0.754	4.76
HPAF-II (pancreas, adherent)	0.948	> 8	0.846	> 20	0.957	> 6.6	0.777	5.46
HSC-2 (head and neck, adherent)	0.808	3.76	0.964	> 20	0.969	> 6.6	0.701	2.24
HSC-3 (head and neck, adherent)	0.881	6.31	0.905	> 20	0.99	> 6.6	0.702	2.15
HSC-4 (head and neck, adherent)	0.872	> 8	0.849	> 20	0.84	> 6.6	0.787	6.12
HSC-39 (stomach, suspension)	0.991	> 8	0.984	> 20	0.988	> 6.6	0.69	2
HT55 (large intestine, adherent)	0.975	> 8	0.985	> 20	0.99	> 6.6	0.99	> 10.2
HT (B-cell lymphoma, suspension)	0.846	5.15	0.884	18.6	0.988	> 6.6	0.701	2.23
HT-3 (cervix, adherent)	0.941	> 8	0.965	> 20	0.957	> 6.6	0.65	1.68
HT-29 (large intestine, adherent)	0.76		0.821	11.5	0.988	> 6.6	0.649	1.65
HT-115 (large intestine, adherent)	0.962	> 8	0.983	> 20	0.991	> 6.6	0.988	> 10.2
HT-144 (melanoma, adherent)	0.785	3.85	0.929	> 20	0.97	> 6.6	0.983	> 10.2
HT-1080 (fibrosarcoma, adherent)	0.791	3.19	0.883	17.5	0.989	> 6.6	0.854	6.81
HT-1197 (bladder, adherent)	0.909	> 8	0.938	> 20	0.975	> 6.6	0.688	2.38
HTC-C3 (thyroid, adherent)	0.9	> 8	0.903	> 20	0.966	> 6.6	0.565	0.983

Cell Line	AUC (BAY 61-3606)	IC50 (BAY 61-3606) [µM]	AUC (KIN001-266)	IC50 (KIN001-266) [µM]	AUC (CCT007093)	IC50 (CCT007093) [µM]	AUC (QL-XII-47)	IC50 (QL-XII-47) [µM]
HUTU-80 (digestive system, adherent)	0.716	1.8	0.891	16.3	0.991	> 6.6	0.308	0.207
HeLa (cervix, adherent)	0.893	> 8	0.982	> 20	0.987	> 6.6	0.86	7.93
Hep 3B2_1-7 (liver, adherent)	0.741	2.44	0.967	> 20	0.987	> 6.6	0.836	6.75
Hs633T (fibrosarcoma, adherent)	0.71	1.72	0.864	12.5	0.992	> 6.6	0.563	0.919
Hs683 (glioma, adherent)	0.874	7.93	0.973	> 20	0.985	> 6.6	0.727	2.85
Hs766T (pancreas, adherent)	0.922	> 8	0.956	> 20	0.974	> 6.6	0.948	> 10.2
Hs939-T (melanoma, adherent)	0.939	> 8	0.852	17.8	0.986	> 6.6	0.949	> 10.2
Hs940-T (melanoma, adherent)	0.744	2.97	0.984	> 20	0.976	> 6.6	0.604	1.31
Hs-578-T (breast, adherent)	0.96	> 8	0.986	> 20	0.984	> 6.6	0.934	> 10.2
HuCCT1 (biliary tract, adherent)	0.857	7.7	0.792	10.2	0.958	> 6.6	0.515	0.707
HuH-7 (liver, adherent)	0.907	> 8	0.985	> 20	0.987	> 6.6	0.926	> 10.2
HuO9 (osteosarcoma, adherent)	0.943	> 8	0.976	> 20	0.975	> 6.6	0.867	> 10.2
HuO-3N1 (osteosarcoma, adherent)	0.832	7.51	0.981	> 20	0.946	> 6.6	0.727	3.54
HuP-T3 (pancreas, adherent)	0.912	> 8	0.808	13.3	0.982	> 6.6	0.764	4.54
HuP-T4 (pancreas, adherent)	0.848	6.52	0.763	7.61	0.967	> 6.6	0.484	0.577
IA-LM (large cell lung carcinoma, adherent)	0.752	2.95	0.851	18.4	0.985	> 6.6	0.761	4.05
IGR-1 (melanoma, adherent)	0.858	5.3	0.739	5.43	0.978	> 6.6	0.68	1.9
IGR-37 (melanoma, adherent)	0.876	6.77	0.835	11.5	0.987	> 6.6	0.843	6.36
IHH-4 (thyroid, semi-adherent)	0.505	0.513	0.889	15	0.992	> 6.6	0.671	1.72
IM-95 (stomach, adherent)	0.701	1.92	0.853	17.3	0.969	> 6.6	0.761	3.86
IMR-5 (neuroblastoma, adherent)	0.862	5.15	0.884	15.8	0.984	> 6.6	0.437	0.444

Cell Line	AUC (BAY 61-3606)	IC50 (BAY 61-3606) [µM]	AUC (KIN001-266)	IC50 (KIN001-266) [µM]	AUC (CCT007093)	IC50 (CCT007093) [µM]	AUC (QL-XII-47)	IC50 (QL-XII-47) [µM]
IPC-298 (melanoma, adherent)	0.975	> 8	0.875	19.2	0.971	> 6.6	0.955	> 10.2
IST-MEL1 (melanoma, adherent)	0.798	4.66	0.842	18.2	0.955	> 6.6	0.779	5.03
IST-MES1 (mesothelioma, adherent)	0.968	> 8	0.958	> 20	0.98	> 6.6	0.868	9.45
IST-SL1 (small cell lung carcinoma, semi-adherent)	0.856	6.76	0.731	5.81	0.967	> 6.6	0.464	0.51
J82 (bladder, adherent)	0.649	1.29	0.946	> 20	0.966	> 6.6	0.954	> 10.2
JAR (urogenital system, adherent)	0.988	> 8	0.98	> 20	0.982	> 6.6	0.652	1.68
JEG-3 (urogenital system, adherent)	0.97	> 8	0.985	> 20	0.98	> 6.6	0.98	> 10.2
JHH-1 (liver, adherent)	0.985	> 8	0.798	10.5	0.973	> 6.6	0.836	7.64
JHH-2 (liver, adherent)	0.978	> 8	0.869	> 20	0.976	> 6.6	0.483	0.574
JHH-4 (liver, adherent)	0.894	> 8	0.837	13.3	0.987	> 6.6	0.987	> 10.2
JHH-6 (liver, adherent)	0.834	5.31	0.873	19.8	0.986	> 6.6	0.986	> 10.2
JHH-7 (liver, adherent)	0.778	3.03	0.876	17.8	0.978	> 6.6	0.431	0.419
JHU-011 (head and neck, adherent)	0.831	4.94	0.866	17.3	0.968	> 6.6	0.643	1.58
JHU-022 (head and neck, adherent)	0.982	> 8	0.981	> 20	0.966	> 6.6	0.893	> 10.2
JIMT-1 (breast, adherent)	0.807	4.51	0.892	> 20	0.969	> 6.6	0.872	> 10.2
JJN-3 (haematopoietic neoplasm, suspension)	0.807	3.25	0.86	12.2	0.99	> 6.6	0.464	0.52
JM1 (B-cell lymphoma, suspension)	0.785	2.91	0.946	> 20	0.975	> 6.6	0.441	0.454
JSC-1 (B-cell lymphoma, suspension)	0.744	2.48	0.84	13.5	0.968	> 6.6	0.418	0.382
JURL-MK1 (chronic myeloid leukaemia, suspension)	0.85	6.04	0.824	11.8	0.872	6.24	0.766	3.76
JVM-2 (lymphoid neoplasm, suspension)	0.932	> 8	0.859	> 20	0.98	> 6.6	0.847	> 10.2

IC50 is the fitted dose that halves viability relative to control wells, and lower means more sensitive; a limit (>, <) means that the fit lies beyond the doses tested. AUC is the area under the same curve over the 256-fold range up to the top dose, as a fraction: 1 means no effect, lower means more sensitive. An inferred top dose was calculated from the reported fits.
